Data from PubChem BioAssay AID686978 (National Center for Advancing Translational Sciences (NCATS), 2013).
Out of some 420,000 compounds screened, about 64,000 (15%) were called active. Inconclusive results, whose numbers are uncertain, are shown with a selection of clear calls. Calls come from the whole dose curve; as a rule, active = well fitted inhibition curve with a large enough effect; inconclusive = small, poorly fitted or top-dose-only effect; inactive = flat fitted curve, though single readings scatter. No potency is given beside an inconclusive call; the fits are too rough.
% is set by controls: 0 for no effect and ±100 for the full control effect; potency is the fitted concentration of half-maximal effect; tags give direction and shape of the fitted curve.

Experiment: qHTS for Inhibitors of human tyrosyl-DNA phosphodiesterase 1 (TDP1): qHTS in cells in absence of CPT; note: nearly all actives have a fitted effect of over 55% in size
Conditions: DT40 Tdp1-/- hTDP1 cells, no CPT, ATP luminescence, 48 h; activity change, negative = growth inhibition: at 46.2 µM (top of the series)
Method in brief: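 Luminescent ATP content (CellTiter-Glo) served as the growth readout. Knockout chicken DT40 cells expressing human TDP1 were exposed to compounds without camptothecin for a minimum 48 hr at 37 °C.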
For `CCN(C=NC1=NN(c2cccc(C(F)(F)F)c2)CC1)CC`, the Potency was inconclusive [inhibitor, partial curve]. With `Cc1ccc(S(=O)(=O)N(C)CCCC(=O)Nc2cccc3ccccc23)cc1` the Potency was inconclusive [inhibitor, single point]. With `Cc1cc(C)c(Nc2nn3c(=O)c4cc5c(cc4nc3s2)OCO5)c(C)c1` the Potency was “inactive”. With `CCc1ccc(-c2nc(CSCC(=O)N3CCN(c4ccccn4)CC3)c(C)o2)cc1` the Potency was active: 18.4 µM. With `CNC(=O)c1cc2c(n(-c3ccc(C)cc3)c1=O)CC(C)(C)CC2=O` the Potency was “inactive”. For `CC(C)C[C@H]1CNC(=S)N1C[C@H]1CCCN1C[C@H](Cc1ccccc1)N1C[C@H](CC(C)C)N(CCc2ccccc2)C1=S`, the Potency was active: 16.4 µM. In the case of `CSc1nc(N2CCN(c3ccccc3)CC2)cc(N2CCN(c3ccccc3)CC2)n1`, the Potency is reported as “inactive”. For `O=C(Nc1ccc(NC(=O)c2ccc3c(c2)OCCO3)cc1)c1ccccc1`, the Potency was “inactive”. With `Cn1c(Cn2nnc3ccccc32)nnc1SCC(=O)N1c2ccccc2CCc2ccccc21` the Potency was inconclusive [inhibitor, single point]. In the case of `CC(C)c1nc2cc(C(=O)N(C)C3CCOCC3)ccc2o1`, the Potency is reported as “inactive”. In the case of `Cc1ccc(S(=O)(=O)c2cc3c(=O)n4ccccc4nc3n(C)c2=N)cc1`, the Potency is reported as inconclusive [inhibitor, partial curve]. In the case of `CCn1nnnc1SCC(=O)Nc1ccc(F)cc1`, the activity change, negative = growth inhibition is reported as inconclusive: -34.8% [inhibitor]. For `Cc1cccc(Cn2ncc(Cl)c(Cl)c2=O)c1`, the Potency was active: 9.2 µM. In the case of `Nc1ccc(NC(=O)c2ccco2)c(Cl)c1`, the Potency is reported as “inactive”. For `CCCC(=O)N1CCN(c2nc3ccccc3s2)CC1`, the Potency was “inactive”. For `Cc1ccc(NC(=O)c2ccco2)c(NC(=O)COc2ccccc2)c1`, the Potency was “inactive”. With `CSc1cc(SC)ncn1` the Potency was “inactive”. With `CC(=O)N[C@@H](Cc1ccc(O)cc1)C(=O)O` the Potency was “inactive”. With `O=C(Cc1ccc(NC(=O)C2CCN(C(=O)c3ccccc3)CC2)cc1)Nc1cccc(C(=O)N2CCCC2)c1` the Potency was “inactive”. For `COc1ccc(/C=N/NC(=O)c2ccoc2C)cc1CN1CCN(c2ccc(F)cc2)CC1`, the Potency was active: 14.6 µM. With `CC(C)(CC(=O)O)CC(=O)Nc1ccccc1Oc1ccccc1` the Potency was inconclusive [inhibitor, partial curve]. For `Oc1c(C(c2ccc(Cl)cc2Cl)N2CCOCC2)sc2nc(-c3ccco3)nn12` (stereo unspecified), the Potency was inconclusive [inhibitor, partial curve]. For `O=C(NCc1ccc(F)cc1)c1ccc(CS(=O)(=O)c2ccc(Cl)cc2)o1`, the Potency was active: 16.4 µM. For `CCOC(=O)C(C)n1cnc2c(nnn2-c2ccc(C)cc2)c1=O` (stereo unspecified), the Potency was “inactive”. In the case of `Cc1noc(C)c1C(=O)OCC(=O)c1c(N)n(CC(C)C)c(=O)n(C)c1=O`, the activity change, negative = growth inhibition is reported as inconclusive: -30.6% [inhibitor]. In the case of `CCc1ccc(NC(=O)Cn2c(=O)c(-c3ccccc3NC(C)=O)nc3ccccc32)cc1`, the Potency is reported as “inactive”. In the case of `NC(=O)c1ccsc1NC(=O)c1ccc(N2CCCC2=O)cc1`, the Potency is reported as inconclusive [inhibitor, single point]. For `CCc1c(C(=O)Nc2ccc(OC)c(Cl)c2)[nH]c(C)c1C(C)=O`, the Potency was inconclusive [inhibitor, single point]. In the case of `C[C@H](O)[C@@H]1C(=O)N2CCc3c([nH]c4ccccc34)[C@@H]2C[C@@H]1N(C)C(=O)Nc1ccccc1`, the Potency is reported as inconclusive [inhibitor, partial curve]. With `O=C(Nc1ccc(Cl)cn1)c1cc(S(=O)(=O)N2CCCCC2)ccc1Cl` the Potency was inconclusive [inhibitor, single point]. For `Cc1ccc(C(=O)CSc2nc(O)cc(=O)[nH]2)cc1C`, the Potency was “inactive”. With `CC1=NN(S(=O)(=O)c2ccc(C)cc2)C(=O)c2ccccc2O1` the Potency was inconclusive [inhibitor, single point]. With `CCOC(=O)c1ccc(NC(=S)Nc2cc(C)cc(C)n2)cc1` the Potency was “inactive”. In the case of `COc1ccc(C2/C=C\CN(C(=O)c3ccccc3)CC(=O)N2Cc2ccc(F)cc2)cc1` (stereo unspecified), the Potency is reported as inconclusive [inhibitor, single point]. In the case of `CN(C)/C=C(\C#N)C(=O)c1cccnc1Oc1ccc(F)cc1F`, the Potency is reported as “inactive”. With `COc1ccc(C2/C=C\CN(C(=O)Oc3ccc(C(F)(F)F)cc3)CC(=O)N2Cc2ccc(F)cc2)cc1` (stereo unspecified) the activity change, negative = growth inhibition was inconclusive: -35.1% [inhibitor]. With `O=C(COC(=O)c1ccc(=O)n(Cc2ccccc2)n1)Nc1ccc2c(c1)OCCO2` the Potency was “inactive”. With `C/C(=N\NC(=O)C1(C)CC1(Br)Br)c1ccc(NC(=O)C2CCC2)cc1` (stereo unspecified) the Potency was inconclusive [inhibitor, single point]. For `O=C(NCC1CCCN1S(=O)(=O)c1cccs1)c1cccc(Cl)c1` (stereo unspecified), the Potency was inconclusive [inhibitor, single point]. With `Cc1cccnc1C1=NOC(Cc2ccccc2)C(=O)N1Cc1ccc2c(c1)OCO2` (stereo unspecified) the Potency was inconclusive [inhibitor, single point]. With `CCN(C(=O)CSc1ncn[nH]1)C1CCCCC1` the Potency was “inactive”. In the case of `O=C(Nc1cccc2ccccc12)N1CC=CCC1`, the Potency is reported as “inactive”. With `COc1ccc(OC(=O)c2cccnc2)cc1` the Potency was “inactive”. For `CCc1ccc(S(=O)(=O)NCC2(N3CCOCC3)CCCCC2)cc1`, the Potency was inconclusive [inhibitor, single point]. In the case of `CC(C)CC(NC(=O)c1cccs1)c1nnc(SCc2ccc(Cl)c(Cl)c2)n1C` (stereo unspecified), the Potency is reported as inconclusive [inhibitor, single point]. In the case of `COCCNc1ncnc2c1cnn2-c1ccc(Cl)cc1`, the Potency is reported as inconclusive [inhibitor, full curve, poor fit]. For `Cn1c(=O)[nH]c(=O)c2c1nc(N1CCCCCC1)n2Cc1cccc2ccccc12`, the Potency was active: 16.4 µM. For `COc1ccc(/C=C/C(=O)OCC(=O)NCc2ccco2)cc1OC`, the Potency was inconclusive [inhibitor, single point]. In the case of `CCOC(=O)c1sc(NC(=O)c2ccc(C)o2)nc1C`, the Potency is reported as inconclusive [inhibitor, partial curve]. For `CCOC(=O)c1cc(-c2ccncc2)nc2c1c(C)nn2C`, the Potency was active: 18.4 µM. With `Fc1ccc(NC(=S)N/N=C/c2ccc(F)c(F)c2)c(F)c1` the Potency was “inactive”. For `CC(Oc1ccc(Cl)cc1)C(=O)N(C)CC(=O)Nc1ccc(N2CCOCC2)cc1` (stereo unspecified), the Potency was “inactive”. For `CC(C)c1ccc(C(=O)N(c2ccccn2)C(C)c2ccco2)cc1` (stereo unspecified), the Potency was active: 23.1 µM. In the case of `Cc1cccc(/C=N\NC(=O)c2ccccc2-n2cccc2)c1`, the Potency is reported as “inactive”. For `COc1ccc(S(=O)(=O)NC(=O)C2(C)CCN2C(=O)c2cccc(F)c2)cc1` (stereo unspecified), the Potency was “inactive”. With `Nc1c(S(=O)(=O)c2cccs2)c2nc3ccccc3nc2n1Cc1cccs1` the Potency was inconclusive [inhibitor, single point]. In the case of `Cc1cc(OC(C)C(N)=O)nc(-c2ccccc2)n1` (stereo unspecified), the Potency is reported as “inactive”. For `C/C(=N\OCC(=O)OCC(=O)NC(=O)c1ccccc1)c1ccc2c(c1)OCO2`, the Potency was “inactive”. In the case of `Cc1ccc(-c2nc(C)sc2CC(=O)Nc2cccc(C)c2C)cc1`, the Potency is reported as inconclusive [inhibitor, single point]. In the case of `CC(=O)Nc1nc2ccccc2[nH]1`, the Potency is reported as “inactive”. With `COc1ccc(C)cc1-n1nnnc1SC(C)C(=O)NC1CCCC1` (stereo unspecified) the Potency was inconclusive [inhibitor, partial curve]. For `COc1ccc(NC(=O)c2ccc(Br)o2)c([N+](=O)[O-])c1`, the Potency was “inactive”. In the case of `Cc1cc(Nc2cccc(Cl)c2)nc(-c2ccccc2O)n1`, the Potency is reported as inconclusive [inhibitor, single point]. In the case of `CCc1ccc(C(C(=O)NC2CCCCC2)N(C(=O)c2csnn2)C2CC2)cc1` (stereo unspecified), the Potency is reported as inconclusive [inhibitor, single point]. For `O=C(C1=C[C@H](C2CC2)C[C@H](OCc2ccc(CO)cc2)O1)N1CCN(Cc2ccccc2)CC1`, the Potency was inconclusive [inhibitor, single point]. With `COc1ccc(C(=O)NNC(=O)c2cc3cccc(OC)c3oc2=O)cc1` the activity change, negative = growth inhibition was inconclusive: -33.7% [inhibitor]. In the case of `O=C(NCC(c1cccs1)N1CCOCC1)C1CCN(S(=O)(=O)c2c(Cl)cccc2Cl)CC1` (stereo unspecified), the Potency is reported as inconclusive [inhibitor, single point]. For `COc1ccc(CCNC(=O)Cn2cc(S(=O)(=O)Cc3ccccc3F)c3ccccc32)cc1OC`, the Potency was inconclusive [inhibitor, single point]. For `Cc1ccccc1-n1c(SC(C)C(=O)NCC2CCCO2)nnc1-c1ccncc1` (stereo unspecified), the Potency was “inactive”. For `Cc1ccc(C(C(=O)NCc2ccc(F)cc2)N(CCCO)C(=O)C2COc3ccccc3O2)o1` (stereo unspecified), the Potency was inconclusive [inhibitor, single point]. For `CC(C)CN(C(=O)Cn1c(C(F)(F)F)nc2ccccc21)C1CCS(=O)(=O)C1` (stereo unspecified), the Potency was “inactive”. With `CC(NC(=O)COC(=O)c1cc([N+](=O)[O-])ccc1N1CCOCC1)c1ccc(F)cc1` (stereo unspecified) the Potency was inconclusive [inhibitor, partial curve]. For `CC1CCN(S(=O)(=O)c2ccc(N3CCCCS3(=O)=O)cc2)CC1`, the Potency was inconclusive [inhibitor, single point]. In the case of `CC(=O)Nc1ccc(Nc2nc(C)nc3c2oc2ccccc23)cc1`, the Potency is reported as inconclusive [inhibitor, partial curve]. For `N#CC(c1ccc(F)cc1)c1ccc(C(=O)c2ccccc2)cc1` (stereo unspecified), the Potency was inconclusive [inhibitor, partial curve, poor fit]. For `COc1cc2c(c(OC)c1OC)CCc1cnoc1-2`, the Potency was inconclusive [inhibitor, single point].
